In the supplement of paper PMC4604168 (melanoma cell lines):
The other results are listed elsewhere or left out. Many values rest on one well or one pass, so single values are uncertain.

Key:
Assay in all cases: cell count relative to DMSO control; melanoma cells; higher = more viable cells
Conditions in all cases: library dose: standard library concentration; 72 h
[1] = system: SkMel28
[2] = system: SkMel2
[3] = system: SkMel30
[4] = system: SkMel5
[5] = system: UACC257
[6] = system: UACC62
[7] = system: WM115
[8] = system: WM1716
[9] = system: WM1745
[10] = system: WM3526
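Also: cells treated in 1,536-well plates, then fixed and DAPI-stained, with nuclei counted from automated high-throughput microscope images.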

Structure (SMILES) | cell count [1] | cell count [2] | cell count [3] | cell count [4] | cell count [5] | cell count [6] | cell count [7] | cell count [8] | cell count [9] | cell count [10]
CC1(C)CCC(c2ccc(Cl)cc2)=C(CN2CCN(c3ccc(C(=O)NS(=O)(=O)c4ccc(N[C@H](CCN5CCOCC5)CSc5ccccc5)c(S(=O)(=O)C(F)(F)F)c4)cc3)CC2)C1 + O=C(O)c1ccc(-c2c[nH]c3ncc(-c4ccccc4)cc23)cc1C1CCCC1 [GSK650394] (first compound 2 µM, partner dose 0.8 µM) | 45.2% | 58% | 53.2% | 62.8% | 40.1% | 68.8% | 65.4% | 50.3% | 5.12% | 71.4%
CC1(C)CCC(c2ccc(Cl)cc2)=C(CN2CCN(c3ccc(C(=O)NS(=O)(=O)c4ccc(N[C@H](CCN5CCOCC5)CSc5ccccc5)c(S(=O)(=O)C(F)(F)F)c4)cc3)CC2)C1 + NCC(=O)Nc1ccc(-n2nc(C(F)(F)F)cc2-c2ccc3c(ccc4ccccc43)c2)cc1 [OSU03012] (first compound 2 µM, partner dose 5 µM) | 5.7% | 5.87% | 9.76% | 17.9% | 21.7% | 45.7% | 69.4% | 57.9% | 2.43% | 17.6%
Cc1ccc(Nc2nccc(N(C)c3ccc4c(C)n(C)nc4c3)n2)cc1S(N)(=O)=O [Pazopanib] + CCN(CC)CCNC(=O)c1c(C)[nH]c(/C=C2\C(=O)Nc3ccc(F)cc32)c1C [sunitinib] (first compound 2 µM, partner dose 2 µM) | 41.6% | 74.5% | 67.2% | 52% | 82.6% | 53.4% | 55.7% | 105% | 68.6% | 48.9%
O=C(/C=C/c1cccnc1)NCCCCC1CCN(C(=O)c2ccccc2)CC1 + Cc1cn(-c2cc(NC(=O)c3ccc(C)c(Nc4nccc(-c5cccnc5)n4)c3)cc(C(F)(F)F)c2)cn1 [nilotinib] (first compound 0.05 µM, partner dose 1 µM) | 118% | 8.11% | 94% | 77.3% | 129% | 78.1% | 112% | 78.9% | 95.5% | 83.5%
CC1(C)CCC(c2ccc(Cl)cc2)=C(CN2CCN(c3ccc(C(=O)NS(=O)(=O)c4ccc(N[C@H](CCN5CCOCC5)CSc5ccccc5)c(S(=O)(=O)C(F)(F)F)c4)cc3)CC2)C1 + CCCS(=O)(=O)Nc1ccc(F)c(C(=O)c2c[nH]c3ncc(Cl)cc23)c1F [PLX4720] (first compound 2 µM, partner dose 0.4 µM) | 44.7% | 87.3% | 55.4% | 53.9% | 37% | 67.1% | 74.1% | 65.8% | 4.5% | 36.4%
Cc1ccc(Nc2nccc(N(C)c3ccc4c(C)n(C)nc4c3)n2)cc1S(N)(=O)=O [Pazopanib] + COc1cc2c(Oc3ccc4[nH]c(C)cc4c3F)ncnc2cc1OCCCN1CCCC1 [cediranib] (first compound 2 µM, partner dose 2 µM) | 107% | 87.1% | 83.9% | 80.8% | 103% | 78.5% | 86.3% | 96% | 109% | 86%
Cc1ccc(Nc2nccc(N(C)c3ccc4c(C)n(C)nc4c3)n2)cc1S(N)(=O)=O [Pazopanib] + C[C@@H](N)c1ccc(C(=O)Nc2ccnc3[nH]ccc23)cc1 [RKI983] (first compound 2 µM, partner dose 2 µM) | 73.7% | 99.6% | 61.3% | 52.9% | 39.1% | 59.1% | 104% | 42.5% | 85.5% | 101%
Cc1ccc(Nc2nccc(N(C)c3ccc4c(C)n(C)nc4c3)n2)cc1S(N)(=O)=O [Pazopanib] + CN(c1ncccc1CNc1nc(Nc2ccc3c(c2)CC(=O)N3)ncc1C(F)(F)F)S(C)(=O)=O [PF562271] (first compound 2 µM, partner dose 0.4 µM) | 80.3% | 94.2% | 84.9% | 60% | 64.7% | 59.1% | 66.9% | 68.8% | 65.9% | 102%
O=C(/C=C/c1cccnc1)NCCCCC1CCN(C(=O)c2ccccc2)CC1 + Clc1ccc(Nc2nnc(Cc3ccncc3)c3ccccc23)cc1 [vatalanib] (first compound 0.05 µM, partner dose 10 µM) | 74% | 20.9% | 81.1% | 89% | 75.8% | 71.2% | 108% | 80.9% | 68% | 76.8%
CC1(C)CCC(c2ccc(Cl)cc2)=C(CN2CCN(c3ccc(C(=O)NS(=O)(=O)c4ccc(N[C@H](CCN5CCOCC5)CSc5ccccc5)c(S(=O)(=O)C(F)(F)F)c4)cc3)CC2)C1 + CN(C)S(=O)(=O)c1ccc2c(c1)/C(=C/c1cc3c([nH]1)CCCC3)C(=O)N2 [SU6656] (first compound 2 µM, partner dose 2 µM) | 42.5% | 59.4% | 60% | 70.5% | 39.5% | 64.1% | 30.3% | 51.5% | 5.66% | 62.5%
Cc1ccc(Nc2nccc(N(C)c3ccc4c(C)n(C)nc4c3)n2)cc1S(N)(=O)=O [Pazopanib] + NC(=O)c1ccc(N(C(N)=O)c2c(F)cccc2F)nc1-c1ccc(F)cc1F [VX702] (first compound 2 µM, partner dose 2 µM) | 68.2% | 96.1% | 88% | 71.2% | 91.3% | 92.7% | 75.1% | 109% | 96.8% | 84%
O=C(/C=C/c1cccnc1)NCCCCC1CCN(C(=O)c2ccccc2)CC1 + O=C(O)c1ccc(-c2c[nH]c3ncc(-c4ccccc4)cc23)cc1C1CCCC1 [GSK650394] (first compound 0.05 µM, partner dose 0.8 µM) | 62.6% | 21% | 96.2% | 107% | 88.5% | 85.8% | 78.7% | 88.6% | 109% | 92%
O=C(/C=C/c1cccnc1)NCCCCC1CCN(C(=O)c2ccccc2)CC1 + Nc1nc(F)nc2c1ncn2[C@@H]1O[C@H](CO)[C@@H](O)[C@@H]1O [fludarabine] (first compound 0.05 µM, partner dose 1 µM) | 2.2% | 1.8% | 37.4% | 39.1% | 57.1% | 66.7% | 86.5% | 70% | 90.6% | 23%
CC1(C)CCC(c2ccc(Cl)cc2)=C(CN2CCN(c3ccc(C(=O)NS(=O)(=O)c4ccc(N[C@H](CCN5CCOCC5)CSc5ccccc5)c(S(=O)(=O)C(F)(F)F)c4)cc3)CC2)C1 + CC(C)(C)c1cnc(CSc2cnc(NC(=O)C3CCNCC3)s2)o1 [SNS-032] (first compound 2 µM, partner dose 0.05 µM) | 63.9% | 47.1% | 67.5% | 61.1% | 45% | 59.9% | 69.9% | 51.5% | 5.1% | 84.8%
CC1(C)CCC(c2ccc(Cl)cc2)=C(CN2CCN(c3ccc(C(=O)NS(=O)(=O)c4ccc(N[C@H](CCN5CCOCC5)CSc5ccccc5)c(S(=O)(=O)C(F)(F)F)c4)cc3)CC2)C1 + NC1(c2ccc(-c3nc4ccn5c(=O)[nH]nc5c4cc3-c3ccccc3)cc2)CCC1 [MK2206] (first compound 2 µM, partner dose 2 µM) | 63.8% | 65.1% | 64.6% | 65.7% | 39.1% | 58.8% | 30.2% | 47% | 5.72% | 67.7%
CC1(C)CCC(c2ccc(Cl)cc2)=C(CN2CCN(c3ccc(C(=O)NS(=O)(=O)c4ccc(N[C@H](CCN5CCOCC5)CSc5ccccc5)c(S(=O)(=O)C(F)(F)F)c4)cc3)CC2)C1 + CO[C@@H]1[C@H](N(C)C(=O)c2ccccc2)C[C@H]2O[C@]1(C)n1c3ccccc3c3c4c(c5c6ccccc6n2c5c31)C(=O)NC4 [Midostaurin] (first compound 2 µM, partner dose 0.4 µM) | 24.9% | 27.2% | 42.1% | 40.4% | 31.8% | 44.4% | 20.5% | 16.1% | 1.62% | 42.2%
CC1(C)CCC(c2ccc(Cl)cc2)=C(CN2CCN(c3ccc(C(=O)NS(=O)(=O)c4ccc(N[C@H](CCN5CCOCC5)CSc5ccccc5)c(S(=O)(=O)C(F)(F)F)c4)cc3)CC2)C1 + COc1ccc(Cl)c(Nc2nc3ccccc3nc2NS(=O)(=O)c2cccc(NC(=O)C(C)(C)N)c2)c1 [XL147] (first compound 2 µM, partner dose 4 µM) | 64.2% | 90.9% | 63.8% | 87.5% | 38.7% | 61.7% | 86.2% | 52.6% | 4.45% | 75.9%
Cc1ccc(Nc2nccc(N(C)c3ccc4c(C)n(C)nc4c3)n2)cc1S(N)(=O)=O [Pazopanib] + C[C@@H]1CCN(C(=O)CC#N)C[C@@H]1N(C)c1ncnc2[nH]ccc12 [CP690550] (first compound 2 µM, partner dose 5 µM) | 77.5% | 91.9% | 93.6% | 67.7% | 68.5% | 86.7% | 111% | 89% | 115% | 78.2%
O=C(/C=C/c1cccnc1)NCCCCC1CCN(C(=O)c2ccccc2)CC1 + O=C(Nc1cccc(Cl)c1)Nc1ncc(CCNc2ncnc3ccsc23)s1 [SNS314] (first compound 0.05 µM, partner dose 0.004 µM) | 57.5% | 38% | 100% | 106% | 81.4% | 86.2% | 45.2% | 53.6% | 92.6% | 70.9%
Cc1ccc(Nc2nccc(N(C)c3ccc4c(C)n(C)nc4c3)n2)cc1S(N)(=O)=O [Pazopanib] + CCCCCCCCc1ccc(CCC(N)(CO)CO)cc1 [fingolimod] (first compound 2 µM, partner dose 10 µM) | 2.31% | 0.304% | 16.8% | 63.8% | 76.4% | 13.9% | 18.6% | 46.5% | 3.18% | 46.4%
